These are yes or no findings as the source states them, for the method shown. For some of these results: In cells and extracts the contact can be indirect. Some entries that bind do so weakly or less than the wild type. For some of these results: Sequences can lack the tags named with a protein. One block for each substance: values may come before it.
Tests used:
GST-GABARAP (mouse) [1] = target: GST-GABARAP (mouse) (UniProt Q9DCD6); test: pull-down; 2 µM GST-GABARAP with lysate of HEK-293 cells overexpressing GFP-γ2 FL (1% NP-40, 1% DDM), with or without AnkB WT peptide; GSH-Sepharose 4B; immunoblot for GFP; only the target purified
GABARAPL2 (mouse) [2] = target: GABARAPL2 (mouse) (UniProt P60521); test: SEC; analytical gel filtration; N-terminal His6-tagged recombinant proteins at 100 µM; Superose12 or Superdex200 increase 10/300 GL; 50 mM Tris pH 7.5, 100 mM NaCl, 1 mM EDTA, 1 mM DTT; both purified
LC3A (mouse) [3] = target: LC3A (mouse) (UniProt Q91VR7); test: as above
GABARAP L50A (mouse) = GABARAP L50A (mouse) (UniProt Q9DCD6); test: condition: 100–200 μM in the syringe, 10–20 μM in the cell; ITC; VP-ITC, 25 °C; 50 mM Tris pH 7.8, 100 mM NaCl, 1 mM EDTA, 1 mM DTT; γ2 subunit protein or peptide (100–200 μM) injected into GABARAP, GABARAPL1 or AP2 (10–20 μM) in the cell; one-site binding model; both purified
GABARAP R67E (mouse) = GABARAP R67E (mouse) (UniProt Q9DCD6); test: as above
GABARAP Y49A (mouse) = GABARAP Y49A (mouse) (UniProt Q9DCD6); test: as above
GABARAPL2 (mouse) [4] = target: GABARAPL2 (mouse) (UniProt P60521); test: as above
LC3A (mouse) [5] = target: LC3A (mouse) (UniProt Q91VR7); test: as above
[6] = target: T1, GST-tagged γ2 subunit 398-415 (mouse); test: pull-down; competitive GST pull-down; 2 µM GST-γ2 398-415 incubated with purified AP2 and rising amounts of GABARAP, 1 h at 4 °C; GSH-Sepharose 4B; 50 mM Tris pH 7.5, 100 mM NaCl, 1 mM EDTA, 1 mM DTT; Coomassie blue; both purified
T1 sequence: ERDEEYGYECLDGKDCAS

The chains behind the UniProt entries cited, without tags or fusion partners. Where a name states a change or a piece, a line headed by the entry shows the natural chain unless it says otherwise. A line that says so, or that is headed by a name, gives the form on record, which may keep a tag or linker. Residues count along the entry.
UniProt Q9DCD6: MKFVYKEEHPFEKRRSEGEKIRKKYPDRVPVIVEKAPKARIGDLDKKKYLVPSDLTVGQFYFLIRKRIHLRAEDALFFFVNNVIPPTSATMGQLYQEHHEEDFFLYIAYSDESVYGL
UniProt P60521: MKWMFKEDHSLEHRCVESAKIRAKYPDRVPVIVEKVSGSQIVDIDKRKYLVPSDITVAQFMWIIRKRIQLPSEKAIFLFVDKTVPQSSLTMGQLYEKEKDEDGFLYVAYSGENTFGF
full length (FL) GFP-γ2-GABAAR wild-type (WT) (P22723-2, form named): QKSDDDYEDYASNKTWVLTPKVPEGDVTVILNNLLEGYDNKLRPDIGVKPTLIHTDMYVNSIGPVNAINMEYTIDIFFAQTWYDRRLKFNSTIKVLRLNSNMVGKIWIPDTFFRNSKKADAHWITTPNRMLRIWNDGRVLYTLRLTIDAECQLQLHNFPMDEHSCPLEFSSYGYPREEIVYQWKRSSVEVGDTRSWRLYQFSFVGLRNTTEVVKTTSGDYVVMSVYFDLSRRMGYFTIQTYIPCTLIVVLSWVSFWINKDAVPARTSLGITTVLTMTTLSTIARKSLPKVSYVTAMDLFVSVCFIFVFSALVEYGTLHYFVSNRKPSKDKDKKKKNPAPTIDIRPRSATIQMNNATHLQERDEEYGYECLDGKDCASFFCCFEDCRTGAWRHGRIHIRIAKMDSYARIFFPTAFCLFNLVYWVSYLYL
UniProt P84092, residues 158-435: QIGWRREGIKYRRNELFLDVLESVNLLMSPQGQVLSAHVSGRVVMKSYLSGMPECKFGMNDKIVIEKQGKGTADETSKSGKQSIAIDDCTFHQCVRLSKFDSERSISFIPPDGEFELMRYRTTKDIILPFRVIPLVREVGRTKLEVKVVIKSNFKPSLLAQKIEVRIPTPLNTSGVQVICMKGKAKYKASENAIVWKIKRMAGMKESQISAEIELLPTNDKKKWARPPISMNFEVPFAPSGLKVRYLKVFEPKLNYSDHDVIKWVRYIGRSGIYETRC

GST-GABARAP (mouse) [7] = target: GST-GABARAP (mouse) (UniProt Q9DCD6); test: pull-down; GST pull-down of GABARAP/γ2-GABAAR with AnkB-WT peptide as competitor (Supplementary Fig. 7a)
GST-GABARAP (mouse) [8] = target: GST-GABARAP (mouse) (UniProt Q9DCD6); test: pull-down; 2 µM purified GST-Atg8 protein incubated with HEK-293 lysate of GFP-tagged γ2 subunit (1% NP-40, 1% DDM), 4 °C; GSH-Sepharose 4B; immunoblot; only the target purified
[9] = target: GST-GABARAP L50A variant (mouse) (UniProt Q9DCD6); test: as above
GST-LC3A (mouse) = GST-LC3A (mouse) (UniProt Q91VR7); test: as above

binding (GST-GABARAP (mouse) [1]): binds
Substance: GFP-γ2-GABAAR full length (from UniProt P22723-2 39-466) (receptor)

binding (GABARAPL2 (mouse) [2]): no binding (tested: 100 µM)
binding (LC3A (mouse) [3]): no binding (tested: 100 µM)
binding (GABARAP L50A (mouse)): no binding
binding (GABARAP R67E (mouse)): no binding
binding (GABARAP Y49A (mouse)): no binding
binding (GABARAPL2 (mouse) [4]): no binding
binding (LC3A (mouse) [5]): no binding
Substance: GABAAR γ2 subunit GIM (GABARAP interacting motif, 398–415) (from UniProt P22723-2 398-415) (peptide)

binding [6]: binds
Substance: MBP-AP2 (from UniProt P84092 158-435) (domain or fragment)

binding (GST-GABARAP (mouse) [7]): binds
binding (GST-GABARAP (mouse) [8]): binds
binding [9]: no binding (tested: 2 µM GST protein)
binding (GST-LC3A (mouse)): no binding (tested: 2 µM GST protein)
Substance: full length (FL) GFP-γ2-GABAAR wild-type (WT) (from UniProt P22723-2 39-466) (receptor)
